Data on 69 compounds can be found in the supplement of paper PMC11060735.

Values joined by “and” are separate entries in the source; they are usually repeats but may differ in a detail not shown here. Identical values can stand only once. Counter-ions that a name gives are not always drawn. Out of some 1,800 compounds screened, about 50 (3%) showed activity. The list shows a part of the results. Square brackets hold non-standard residues; d marks the D form. Peptide text beside a SMILES is read from it. pGlu = O=C1CC[C@@H](C(=O)O)N1; Thz = O=C(O)[C@@H]1CSCN1
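Further: fibroblasts sorted 14 days after bleomycin, GFP+ and GFP− mixed 1:1 in 384-well plates (GFP− as in-well control), imaged after Hoechst and NucView530 staining, reference wells lacked compound.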

The experiment relates to mouse p16Ink4a+/- lung fibroblasts (INKBRITE, bleomycin-injured). In words: percentage of GFP+ (p16Ink4a+) fibroblasts among all cells in well; higher = less depletion of p16Ink4a+ cells, active = 20 or less. Particulars: 1 µM; 3 days.
In the case of `C[C@@H]1CN(CC(=O)Nc2ccc3c(c2)Cc2cccc(-c4cc(=O)cc(N5CCOCC5)o4)c2S3)C[C@H](C)O1`, the “percentage of GFP+” value was inactive: 44.7%.
Regarding `Oc1ccc(/C=C/c2cc(O)cc(O)c2)cc1` [Resveratrol], the “percentage of GFP+” value was inactive: 42.8%.
On to `CNC(=O)c1ccc(N2C(=S)N(c3cnc(C#N)c(C(F)(F)F)c3)C(=O)C23CCC3)cc1F`, for which the “percentage of GFP+” value was inactive: 58.2%.
For `COCCO/C(O)=C1\C(C)=NC(C)=C(C(=O)OC/C=C/c2ccccc2)C1c1cccc([N+](=O)[O-])c1` (centres undefined) [Cilnidipine], the “percentage of GFP+” value was inactive: 51.7%.
As for `N#C/C(=C\c1ccc(O)c(O)c1)C(=O)NCc1ccccc1` [Tyrphostin Ag 490], the “percentage of GFP+” value was inactive: 42.9%.
Take `CC(C)CN(C[C@@H](O)[C@H](Cc1ccccc1)NC(=O)O[C@H]1CCOC1)S(=O)(=O)c1ccc(N)cc1` [Amprenavir]: the “percentage of GFP+” value was inactive: 43%.
As to `OC[C@H]1O[C@@H](c2ccc(Cl)c(Cc3ccc(O[C@H]4CCOC4)cc3)c2)[C@H](O)[C@@H](O)[C@@H]1O` [Empagliflozin], the “percentage of GFP+” value is inactive: 43.7%.
Consider `CCCCOc1ccc(C(=O)Nc2ccc(F)cc2F)cc1`, for which the “percentage of GFP+” value is inactive: 52.6%.
Under `CNC(=O)c1cc(Oc2ccc(NC(=O)Nc3ccc(Cl)c(C(F)(F)F)c3)cc2)ccn1` [Sorafenib] stands inactive: 27.2% and inactive: 30.1%; under `COc1c(O)cc2c(c1O)[C@@H]1O[C@H](CO)[C@@H](O)[C@H](O)[C@H]1OC2=O` [Bergenin], inactive: 42.5%; under `CCOC(=O)c1c(CSc2ccccc2)n(C)c2cc(Br)c(O)c(CN(C)C)c12` [Arbidol HCl], inactive: 52.4%.
On to `C[C@]12C=CC(=O)N[C@@H]1CC[C@@H]1[C@@H]2CC[C@]2(C)[C@@H](C(=O)Nc3cc(C(F)(F)F)ccc3C(F)(F)F)CC[C@@H]12` [Dutasteride], for which the “percentage of GFP+” value was inactive: 33.6%.
`Cc1ccc(C(=O)N(CCCN)[C@@H](c2oc3cc(Cl)ccc3c(=O)c2Cc2ccccc2)C(C)C)cc1`: the “percentage of GFP+” value is inactive: 38.5%.
Then `COc1cc2nc(N3CCN(C(=O)c4ccco4)CC3)nc(N)c2cc1OC` [Prazosin], with inactive: 47.6%; and `COc1cc(CCc2cc(NC(=O)c3ccc(N4C[C@@H](C)N[C@@H](C)C4)cc3)[nH]n2)cc(OC)c1`, with inactive: 38.4%.
Consider `CC(C)C(=O)Nc1ccc([N+](=O)[O-])c(C(F)(F)F)c1` [Flutamide], for which the “percentage of GFP+” value is inactive: 38.2%.
`C[C@@H]1C[C@H]2[C@@H]3C[C@H](F)C4=CC(=O)C=C[C@]4(C)[C@@]3(F)[C@@H](O)C[C@]2(C)[C@@]1(O)C(=O)CO` [Flumethasone]: the “percentage of GFP+” value was inactive: 42.2%.
Then `O=C(c1ccc(OCCCc2c[nH]cn2)cc1)C1CC1` [Ciproxifan], with inactive: 50.4%; and `CC1(C)O[C@H]2CC(=O)OC[C@]23[C@H]2CC[C@@]4(C)[C@H](c5ccoc5)OC(=O)[C@H]5O[C@]54[C@]2(C)C(=O)C[C@@H]13` [Limonin], with inactive: 42.2%.
Under `N[C@@H](CC(=O)N1CCn2c(nnc2C(F)(F)F)C1)Cc1cc(F)c(F)cc1F` [Sitagliptin] stands inactive: 44.6%; under `CC(=O)SCC(Cc1ccccc1)C(=O)NCC(=O)OCc1ccccc1` (centres undefined) [Racecadotril], inactive: 45%.
Then `OCCN(CCO)c1nc(N2CCCCC2)c2nc(N(CCO)CCO)nc(N3CCCCC3)c2n1` [Dipyridamole], with inactive: 42.4%.
Consider `CN(C)c1ccc(C(=C2C=CC(=[N+](C)C)C=C2)c2ccc(N(C)C)cc2)cc1` [Gentian Violet], for which the “percentage of GFP+” value is inactive: 43.4%.
For `COc1ccc(F)c(F)c1C(=O)c1cnc(NC2CCN(S(C)(=O)=O)CC2)nc1N`, the “percentage of GFP+” value was inactive: 24.8%.
Turning to `CO/C(O)=C1/C(C)=NC(C)=C(C(=O)OC(C)C)C1c1cccc2nonc12` (centres undefined) [Isradipine], the “percentage of GFP+” value was inactive: 34.6%.
On to `Cc1c(C(=O)Nc2ccc(N3CCC(N4CCOCC4)CC3)c(C#N)c2)cnn1-c1ccc(Cl)cc1`, for which the “percentage of GFP+” value is inactive: 29.2%.
Under `OC(Cn1cncn1)(Cn1cncn1)c1ccc(F)cc1F` [Fluconazole] stands inactive: 34.2%; under `CCN(CC)CCNC(=O)c1c(C)[nH]c(/C=C2\C(=O)Nc3ccc(F)cc32)c1C` [Sunitinib], inactive: 30.2%.
Then `O=C(c1ccc(OCCN2CCCCC2)cc1)c1c(-c2ccc(O)cc2)sc2cc(O)ccc12` [Raloxifene], with active: 16.8%; and `CCN(CC)Cc1ccc2cc(COC(=O)Nc3ccc(C(=O)NO)cc3)ccc2c1` [Givinostat], with inactive: 23.2%; and `COc1cc(C(C)=O)ccc1OCCCN1CCC(c2noc3cc(F)ccc23)CC1` [Iloperidone], with inactive: 56.8%.
Then `CN1CCC(=C2c3ccccc3CCc3sccc32)CC1` [Pizotyline Malate], with inactive: 53.9%; and `NCCc1c[nH]cn1` [Histamine], with inactive: 46.4%; and `COc1cc2ncnc(Sc3nnc(C)s3)c2cc1OC`, with inactive: 50.2%.
In the case of `Cc1[nH]c(/C=C2\C(=O)Nc3ccc(S(=O)(=O)Cc4c(Cl)cccc4Cl)cc32)c(C)c1C(=O)N1CCC[C@@H]1CN1CCCC1`, the “percentage of GFP+” value was inactive: 79%.
Under `CC[C@]1(O)C[C@@H]2CN(CCc3c([nH]c4ccccc34)[C@@](C(=O)OC)(c3cc4c(cc3OC)N(C=O)[C@@H]3C45CCN4CC=C[C@](CC)([C@H]45)[C@@H](OC(C)=O)[C@]3(O)C(=O)OC)C2)C1` (some centres undefined) [Vincristine] stands active: 16.5%; under `O=C(NOCC1CC1)c1ccc(F)c(F)c1Nc1ccc(I)cc1Cl`, inactive: 42.2%.
As to `NC(=O)C1CCCc2c1[nH]c1ccc(Cl)cc21` (centres undefined) [Selisistat], the “percentage of GFP+” value is inactive: 44.8%.
Then `Nc1nc(N)c2nc(-c3cccc(O)c3)cnc2n1`, with inactive: 40.8%.
Under `CN1CCN(C(c2ccccc2)c2ccccc2)CC1` [Cyclizine] stands inactive: 47.5%; under `OC1(c2ccc(Cl)c(C(F)(F)F)c2)CCN(CCCC(c2ccc(F)cc2)c2ccc(F)cc2)CC1` [Penfluridol], inactive: 55.9%; under `COc1cc2c(cc1OC)CC(=O)N(CCCN(C)C[C@H]1Cc3cc(OC)c(OC)cc31)CC2` [Ivabradine], inactive: 38.8%.
Then `CCCCOc1c(C(=O)c2c(F)cc(C)cc2F)cnc2[nH]ncc12`, with inactive: 30.9%; and `FC(F)c1nc2ccccc2n1-c1nc(N2CCOCC2)nc(N2CCOCC2)n1`, with inactive: 30.8%.
In the case of `C[C@]1(O)C[C@@H](c2nc(-c3ccc4ccc(-c5ccccc5)nc4c3)c3c(N)nccn32)C1` [Linsitinib], the “percentage of GFP+” value was inactive: 46.4%.
Regarding `CC(=O)OCC(=O)NCCCOc1cccc(CN2CCCCC2)c1` [Roxatidine acetate], the “percentage of GFP+” value is inactive: 41.6%.
Then `OC[C@@H](O)[C@@H](O)[C@H](O)[C@H](O)CO` [Mannitol], with inactive: 35.6%.
On to `O=C1CC[C@@H](C(=O)N2CSC[C@H]2C(=O)O)N1` [Pidotimod] ([pGlu]-[Thz]-OH), for which the “percentage of GFP+” value was inactive: 37.8%.
As for `CCOc1ccc(Cc2cc([C@@H]3O[C@H](CO)[C@@H](O)[C@H](O)[C@H]3O)ccc2Cl)cc1` [Dapagliflozin], the “percentage of GFP+” value is inactive: 38.4%.
Then `N=C(N)NC(=O)c1nc(Cl)c(N)nc1N` [Amiloride], with inactive: 33.1%; and `CCCc1ncc(C[n+]2ccccc2C)c(N)n1` [Amprolium], with inactive: 49.9%.
Regarding `COc1cc2c(cc1OC)[C@@H]1Cc3ccc(OC)c(OC)c3CN1CC2` [Rotundine], the “percentage of GFP+” value was inactive: 40.2%.
For the compound `CC(C(=O)O)c1cccc(Oc2ccccc2)c1` (centres undefined) [Fenoprofen], the “percentage of GFP+” value is inactive: 51.2%.
Under `Cc1cccc(-c2[nH]c(C(C)(C)C)nc2-c2ccc3nccnc3c2)n1` stands inactive: 42.9%; under `Oc1ccc(Nc2nc(-c3ccc(Cl)cc3)cs2)cc1`, inactive: 44.5%; under `O=[N+]([O-])c1cn2c(n1)OC[C@@H](OCc1ccc(OC(F)(F)F)cc1)C2`, inactive: 54.8%.
As for `COc1ccc2c(c1)c(C1=C(c3c[nH]c4ccccc34)C(=O)NC1=O)cn2CCCN(C)C`, the “percentage of GFP+” value was inactive: 60.7%.
Turning to `Nc1nccc2c1ncn2[C@@H]1C=C(CO)[C@@H](O)[C@H]1O` [3-Deazaneplanocin A (DZNeP)], the “percentage of GFP+” value was inactive: 30.1%.
Then `Cn1cc(CNCC2CCN(c3ncc(C(=O)NO)cn3)CC2)c2ccccc21` [Quisinostat], with active: 1.92%; and `CNC(=O)c1nn(C)c2c1C(C)(C)Cc1cnc(Nc3ccc(N4CCN(C)CC4)cc3)nc1-2` [Milciclib], with inactive: 44.1%; and `O=C(CCCCCN1C(=O)c2cccc3cccc(c23)C1=O)NO` [Scriptaid], with inactive: 37.6%.
Consider `S=C(NCc1ccc2c(c1)OCO2)N1CCN(c2ncnc3c2oc2ccccc23)CC1` [Amuvatinib], for which the “percentage of GFP+” value is inactive: 36.1%.
Turning to `CC(C)(O)[C@H]1CC[C@@](C)([C@H]2[C@@H](O)C[C@@]3(C)[C@@H]4C[C@H](O[C@@H]5O[C@H](CO)[C@@H](O)[C@H](O)[C@H]5O)[C@H]5C(C)(C)[C@@H](O[C@@H]6OC[C@@H](O)[C@H](O)[C@H]6O)CC[C@@]56C[C@@]46CC[C@]23C)O1` [Astragaloside A], the “percentage of GFP+” value was inactive: 52.4%.
Under `c1ccc(CN(CC2=NCCN2)c2ccccc2)cc1` [Antazoline] stands inactive: 48.8%; under `Nc1ccc2ncnc(NCCc3ccc(Oc4ccccc4)cc3)c2c1`, inactive: 39.5%; under `Oc1c(Br)cc(Br)c2cccnc12` [Broxyquinoline], inactive: 50%.
As for `O=C(O)c1ccc(/C=C2/SC(=S)N(c3cccc(C(F)(F)F)c3)C2=O)cc1`, the “percentage of GFP+” value is inactive: 42.2%.
With `C[C@@H](O)[C@H]1C(=O)N2C(C(=O)OCOC(=O)C(C)(C)C)=C(SC3CN(C4=NCCS4)C3)[C@H](C)[C@H]12` [Tebipenem Pivoxil], the “percentage of GFP+” value is inactive: 45.1%.
For `CN(C)CC(=O)Nc1ccc2nc(O)c3ccccc3c2c1`, the “percentage of GFP+” value was inactive: 39.8%.
